This is an account of results in publication PMC3675490 (Nucleic Acids Research, 2013).

The series concerns the molecule itself. Put plainly: crystal structure.

B1: Hfq65 (Escherichia coli Hfq, […], Sm fold) (domain or fragment)
chain: not shown
Take B1: the “stoichiometry N” value came to 6.

The stoichiometry N is the number of molecules, sites or subunits per partner or assembly.
